Assay results published in publication PMC10726135.
The other results are listed elsewhere or left out. At the low end of the ranking the order means little. The protein was read in a cell extract, so binding may be indirect.

target: T1, HNF4alpha8 (COS-7 nuclear extract) (UniProt P41235-5); assay: protein-binding microarray; conditions: COS-7 nuclear extract on double-stranded Agilent 4x180k PBM; binding buffer, salt, pH and temperature not given; high values mean tight binding; double strand, one strand shown; sequences stand for … in …GCCTAGGGAGATTAGAGTATCGGTCGA
T1 sequence: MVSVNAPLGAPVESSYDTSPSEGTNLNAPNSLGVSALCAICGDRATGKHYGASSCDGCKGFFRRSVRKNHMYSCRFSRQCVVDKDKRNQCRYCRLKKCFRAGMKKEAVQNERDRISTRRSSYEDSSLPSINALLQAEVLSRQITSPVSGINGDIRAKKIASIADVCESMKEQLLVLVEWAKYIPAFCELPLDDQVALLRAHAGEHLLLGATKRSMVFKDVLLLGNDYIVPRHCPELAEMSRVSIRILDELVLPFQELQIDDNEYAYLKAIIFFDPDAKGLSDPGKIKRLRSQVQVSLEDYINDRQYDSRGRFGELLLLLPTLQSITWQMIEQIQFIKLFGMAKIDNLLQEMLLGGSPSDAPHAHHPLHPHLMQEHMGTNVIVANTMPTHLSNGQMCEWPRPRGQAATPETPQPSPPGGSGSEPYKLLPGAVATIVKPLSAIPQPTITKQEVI

Row | Sequence | binding signal (log2 normalized intensity)
1 | GACTTTTTGTAGTTTCAGCTTCTTCCTTGA | -0.249
2 | CTTTTGGCTCCCTGGGGTTAAAATGTTTAC | 1.95
3 | GGCGGACAGCGCCGCCACCCGGTTGGCGCC | -1.1
4 | TTTCAAGAACAAACAAATTTAGCAAGACTG | -1.36
5 | GGAGGAAGCAGCGATGGAAGGGATGGGGTG | -1.33
6 | GGGTAATAAATAAAGCCCTGGGGTAATAAA | -0.448
7 | CTGGTTGGAATTCCAGTGTTCACATCTGAT | 1.09
8 | ACATTAAGACCACCTCTATGCACACGTTCA | -1.1
9 | CTCTCTGGACTTCGGACATTCCAGGGAACA | 4.52
10 | GAACCAGAGAAGATTCCAGAGGGAGGGAGG | -1.24
11 | GACTACCAGCCAGTAGGAGTTGGAACGGGG | -1.03
12 | ACACAGACTCCAAAGAATGGAAGGCAGTGT | -1.08
13 | CCCCATATCCAGTCAATCCCGTGGACTTTG | 6.13
14 | GGGTCAGTTTATCGAAAATCCCCCACCATT | 4.11
15 | CCTGCTGCACAACGACCCTTGCTCTGTTTT | 3.75
16 | ACCGTAAAGCCACCCCTTTCTCCTCTCTTT | 1.35
17 | GCCATTTCGGCACCTTCTACACAGCACCCC | 2.82
18 | ATTAGCTTCCCGGCTGTCACAGCCTGGTTC | -1.3
19 | CAGCACCACCTGCTGGTCAGGAGACTGCTC | -1.37
20 | CCTGGGAGGCAGGACCTTGGGAAAGGAGAA | -1.31
21 | TGAACTGATTAGAACATTAAGTCCAAATGC | 1.55
22 | AGTAAACAGGGCTGGGATAACCGAGGCTGA | -1.33
23 | CATGCTGATGGCAAACACCTGGCCAGCGAC | -1.07
24 | GGAGATAGCCTCTGGGCTGGCTTTAGCTCA | -1.28
25 | TTCATCCCCACCCCCACTGCCTGACCCCAA | 7.49

Row | Sequence | binding signal (log2 normalized intensity)
26 | AGTTCCCAGCCCTTCACCAGAGCCGTCTGG | -1.22
27 | TCCCAATTTATCTTTCCAGATTGTTCTATT | 0.618
28 | ACACTTAGAAAATGCCCTCAATCAAAGTGA | 0.00257
29 | GCTGACATGCTCTTGGAATGTTGAACCTTT | 4.87
30 | GGGTGGGCCTGGGGGGAGACAACTGCAACA | -1.42
31 | TGATCAGAAAAGAAAGTGAGGAATGCAACC | -1.27
32 | ACAGGGCTTGGGGTGGGGTTGGAGTCCAGA | 2.01
33 | CTGACACTGTCCCAGCTGAGATTCAGAATA | -1.35
34 | TGTGTGCACAAGAGGGTGGGAGTTCAGGGG | -0.277
35 | GTAGTTGCAAATATTGCAGTGTAGATTAAA | 0.731
36 | TTTTATGTGCTCCATCAGTGGTAAACAGAA | 1.19
37 | TAAAATGAGACTTCCCAGCTGCTGGTCAAA | 0.0486
38 | TATGGCTTATACTTGAGGTATGATGCATCC | 1.31
39 | TGCAAATATTGCAGTGTAGATTAAATCCTC | -0.842
40 | CAATTGGGAATGTCACAGGGGCCATGCAGG | -1.03
41 | AGGAGAAGAATGAAAGCCAAGGCAGATATG | -1.42
42 | GGAAATAATGCGACTTGCCTTGTGTACTCT | 2.28
43 | CTCCCGGGGAGGTCAACCAGGGAAATTACC | -1.24
44 | CAGGTAGAGAGCAATCATGCACCTGCGGAT | -1.42
45 | GCTCTTTAGGAATGCAACTCTAACCTTTAC | 3.59
46 | CTGGGGAGACTCTCTCTCCTCTCCAGCCCA | 0.89
47 | GCAAAGGTGAGGGGAGCGTAAAACCACTGG | -1.32
48 | AGGCCGTTCTAGCCCTTTTTCCGGCTGAAT | -1.42
49 | TCTCCTGGAATGCAAGACCTCAGCCCTCAG | -1.39
50 | GCCTCGGGCCTGCGAGGTTACAGGGTTCAA | 2.84

Row | Sequence | binding signal (log2 normalized intensity)
51 | CGCCGGAACTGGTCCGGCCCGACTCACGAC | -1.26
52 | GACAGCCAGCTGGTAAATAAAGGAACTTAC | -1.4
53 | TCAGACTGAGGATGGGCCAAGGTTCAGAGA | 1.97
54 | CTATGGACCTGCAAACAGCACTCTCTGATT | -1.17
55 | AACTGAGTATTTAGCTTCCTCCCTTGGAAT | 0.0858
56 | TCGGCGCTCCGCTTACTCGGCCTGGACCCC | 3.69
57 | TGCCCTCACAGGTTCCAGCATGGACTTCAC | 3.32
58 | TTGACCCTGCGATAAGTAGATACCAAATAG | 1.36
59 | AGAGGCCTTATCTGGCCGCCTAATCCCCTG | 1.27
60 | CCTAAGTCTGCCGTTTTCTTATTCTGTCAC | 1.43
61 | CTCCATGCTGTAGATTGTGGAATGTCTTCT | 1.15
62 | TTGGGACCTGAGAACAAACAATGGTTTGGG | -0.75
63 | AAACTCTCAAGCTCTCCTCTTATCAGGCAG | -1.31
64 | AGTGTAAAGAGCTTTTGGGCAGAGACTATG | -1.2
65 | AATTAAGGAAGATGGTGCAAGTGGCTATGG | -0.192
66 | AATGCCTAAACCAGGATCCAGTCCTCACCC | -1.28
67 | CTTTAATAGGCTGGGATGATTTCAGCTTAT | -0.555
68 | GAAAAGTAATGAAAGGAAATCATTCCAGAA | -1.09
69 | TATTCATTCAACTTTGACTTCCATTGTGTT | 2.08
70 | TCGCCTAGGCCTTTCCTGGGCCTTAAAGCA | -1.25
71 | ACAACAGCCTTGCAGATAAGCCACGAGCCT | -1.33
72 | TCTCTGGTCAAAGGGTAAAGATTATGAACT | 2.92
73 | GAAAACAAATAGAGCAGACTATTATCAGCC | -1.23
74 | TCATCTGAGTAGTGTACGTTGTACCCCACA | 3.97
75 | ACATTGTAACCACCTCTCTGGGTGGTTCGA | 0.0105

Row | Sequence | binding signal (log2 normalized intensity)
76 | AGCAACAGACTGCTGTGTTACTAGAGCCAA | -1.33
77 | GATTGGACTTTGGCCTGTGAATCCACATTC | 6.47
78 | ACAGGATGCCTGAGTAATTACTATAAATGC | -0.245
79 | CACCTGTGTCAACATGGACTTTGTTGTTTG | 4.99
80 | GAACCGTCTGCCCAGAGCGGCAGCGCCTCC | -1.15
81 | GTGTCAATTCCAAAGTTCAAGTAGAGCTTC | 4.15
82 | TAAGACTAACCTTTGACCATCCACGGATGC | 5.5
83 | CCAACCTGGCCTGTTTGATCTGGTTTTTGT | 1.72
84 | GGATAATGATAAAGAGATTGGACTTTGGCC | 9.44
85 | TACTGAAAAGTCTACCTTTGGCCTGGGGAT | 2.46
86 | TCCACAGTAAAACATACTGGTGGTTTCACA | -1.14
87 | CACCTTCAGTCACACTGTTTGCGCAAACTA | -0.902
88 | ATCTACAGATCTGGAGCCAGCAAGGACTTT | 4.18
89 | CAAACTCACCTGGAGAAGCAGAAGCTGCAC | -1.32
90 | CCCAGCATGTTTGGGTCACAATCACAAATG | 0.56
91 | TGCAGAAAAACAGGTTCTGCAACACTTTCT | -1.18
92 | TATATTCATAACACTTGTATGACCTTTGTT | 6.2
93 | GCCACAACTGAGTATTTAGCTTCCTCCCTT | 0.903
94 | GTGCTTAGCTATTTCGTTGAATGCTGAACT | 1.51
95 | CCTTGACCTCCTGGGCCCAAGTGCTCCTCC | 0.494
96 | AAACGCAATTGCCCTACAGCTCCTGAGTCC | 0.968
97 | GAGGGAAAGGTCAAGAGAATTACAAACAGC | -1.18
98 | TGAGAACTGGAGCAAAGGTCACTCTTGCTA | 5.31
99 | TCCACTGATAAAGTTCTTTTGTGTGTTTAC | 1.8
100 | AAAGGGTGAAATAGGAGGATTTTATTCAGG | -1.28

Row | Sequence | binding signal (log2 normalized intensity)
101 | CTTGGTATGTCTGATGAATAGAAAGAGGTC | 1.82
102 | CTTGTCTGATAAGATTCAGAACCCATTAAT | 0.282
103 | CCCATCCATTTCCCATCCCCAGAGCCCCCT | 5.31
104 | AAGACACAGAGAAAAAGAAGGTTGGGCGTT | -1.24
105 | TGTCTTCCTCTCTGAAGGATTTAAATGGAA | 1.02
106 | CATCTAAGACTTTATTTGAAGAAATGGTGG | 0.881
107 | GAATTGGAAGGCAAAGTTCAACCCTGAATG | 2.56
108 | AGGTGAATCAACGATAAGGGATGATAAGGC | -1.38
109 | ATAAACTTCCAGCCATTTTGTGAGCTCTGA | -1.13
110 | ATGGCATTTAGGGTATTTCCTAAACCAACT | -1.41
111 | CTCTGAGATGGACTCCAGTGATCTTATCGC | 2.49
112 | GAAGCTGTGTAACCCTGGAGCCATAAATCC | -1.31
113 | AGATGAGGAATCTGTTGAGAACTGGAGCAA | -1.43
114 | ACTCTCTCATTCTGATATGCACTGTCAGTT | 0.722
115 | GAGGCAGTGGCCTGAGGCAGCCAGTGAGTG | -1.4
116 | AAGCAACACTTTCTGACCTTTAAGCACCCA | 4.22
117 | CCCGAAGGGTAGGAGAAGCTGGAAGGACAG | -1.28
118 | GAAGCAGGCAGGCAGCTTCCAGGTGACAGT | -1.25
119 | TCTTCTTCTGGGGACTTCGGTCTTTTTTCT | 2.67
120 | GCTTGTTGGTTCAAGAGAAATGTTATCTCA | 1.37
121 | TGTGTTTCCACAAACACAGATCAGATATGA | 0.289
122 | TTTTTCTTGGGTGTATGGGTATAGGCGCGC | 1.09
123 | GTGGAATTTGTGCTTATTTCCCATCAAGGA | 0.292
124 | TTGAACCTTGGGTCTGTAATCTCACAACTC | 1.98
125 | ACACAGAGGAGCGACCCAGGCAGCCCCTTT | -0.898

Row | Sequence | binding signal (log2 normalized intensity)
126 | TGCAAATGGATGAATTTTATCACTCCATCA | -1.25
127 | ATAGCAAACACGATTGGATGGAAGGTCCTT | 0.748
128 | AGAAACAGAAAGTCCGGGGGCCAGTTCACT | -1.35
129 | TCTGTGAAGGTCAGGAGCCCCACAGAGCAA | 2.3
130 | AGAGCACAGGATCCAGAGGTCACCCAGAGC | 2.19
131 | GATTTTTAGAGCTGGGGCACAATGCTGCAA | -1.43
132 | CATTAATTAACCTTTGAGCTGGGTGGCCCT | 3.85
133 | TTATCTTGATGGTTAAAGTCCAATCTTCTG | 4.82
134 | CTATCACTGTCTAGCTGTGTAACCCTGGAC | 1.97
135 | TCACCATATCCCTGAGAGGCCAGTTTGACC | 3.28
136 | AGCTGGAGGAGACCTTTGGATATCATATCA | 2.69
137 | TGGACTTTGATCCTGATGACTGCAGAGCTT | 6.16
138 | GTAACCACCTCTCTGGGTGGTTCGAGACCC | 0.212
139 | GCGCAGGCGCAGTCCTCTCTCGCGAGAGCC | -1.24
140 | GTATTTTTTGAATGACAGTGTCAGGACCTT | 1.65
141 | GGCTGAGCATCACCAGTGCAGCTGACCTAC | 2.24
142 | TGGAATGTCTTTGGGTGGAGGGGAGGTTAT | 1.18
143 | ACATTCTTCCTCACATCTCTTCCTTGCTTT | 0.292
144 | TCTTCCTTCATCTGGAGACAAATGCTTTTG | 0.978
145 | ATCCAGCACAGTGCTGGTACATAGCAGGGG | -0.951
